Screen size: about 420,000 compounds; about 50,000 (12%) were called active. Inconclusive results, whose numbers are uncertain, are shown with a selection of clear calls. Calls come from the whole dose curve; as a rule, active = well fitted inhibition curve with a large enough effect; inconclusive = small, poorly fitted or top-dose-only effect; inactive = flat fitted curve, though single readings scatter. No potency is given beside an inconclusive call; the fits are too rough.
Assay: qHTS for Inhibitors of human tyrosyl-DNA phosphodiesterase 1 (TDP1): qHTS in cells in presence of CPT; note: nearly all actives have a fitted effect of over 55% in size
Conditions: chicken DT40 Tdp1-/-;hTDP1 cells + 20 nM CPT, ATP luminescence, 48 h; activity change, negative = growth inhibition: at 46.2 µM (top of the series) unless noted
How it was run: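 Chicken DT40 Tdp1-/- cells complemented with human TDP1, 400 cells/well, exposed to compounds plus 20 nM camptothecin for at least 48 h at 37 C; viability read as ATP content by CellTiter-Glo luminescence.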
% is set by controls: 0 for no effect and ±100 for the full control effect; potency is the fitted concentration of half-maximal effect; tags give direction and shape of the fitted curve.

Compound	Potency	activity change, negative = growth inhibition
Clc1ccc(CN2C3=NCCCN3c3ccccc32)c(Cl)c1	inconclusive [inhibitor, single point]	
CCCNC(=O)C1(C)CCCN(Cc2ccc(C(=O)OCC)o2)C1 (centres undefined)	inconclusive [inhibitor, partial curve]	
O=[N+]([O-])c1ccc(N2CCC(O)CC2)nc1	inconclusive [inhibitor, single point]	
COc1ccc(CCNC(=O)COc2nncc3ccccc23)cc1		inactive: 4.61%
COc1ccc(CN2C(=O)C(CC(=O)NCc3ccco3)CC(C(=O)N(C(C)C)C(C)C)=C2C)cc1 (centres undefined)	inconclusive [inhibitor, single point]	
N#CC(=C1C=C(Br)C(=NO)C=C1Cl)c1cccc2ccccc12	inconclusive [inhibitor, single point]	
O=C(Oc1ccc(N(C(=O)c2ccncc2)S(=O)(=O)c2ccc(F)cc2)cc1)c1ccncc1		inactive: -25.9%
CC1=C(C(=O)N(C(C)C)C(C)C)CC(CC(=O)NCc2ccco2)C(=O)N1Cc1ccc(C(C)(C)C)cc1 (centres undefined)	active: 20.6 µM	
CCCCC(=O)Nc1sc2c(c1C#N)CC(C)(C)OC2	inconclusive [inhibitor, partial curve, poor fit]	
O=C(OCc1ccccn1)c1ccc(COc2ccc3ccccc3c2)o1	inconclusive [inhibitor, single point]	
COc1ccc(-c2csc3ncnc(N4CCN(c5ccccc5Cl)CC4)c23)cc1	inconclusive [inhibitor, single point]	
N=C(N=C(N)N)N1CCc2ccccc21	inconclusive [inhibitor, partial curve, poor fit]	
CCc1nnc(SCC(=O)Nc2ccc(Cl)cc2F)c2cc3occc3n12	active: 23.1 µM	
CCc1ccc(CNC(=O)c2ccc(CS(=O)c3ccc(Br)cc3)o2)cc1 (centres undefined)	inconclusive [inhibitor, single point]	
CCC(=O)c1cc2c(cc1NC(=O)c1cccs1)OCCO2		inconclusive: -31.5% [inhibitor]
COc1cnc(-c2ccccn2)nc1Oc1ccc(F)cc1F	active: 10.3 µM	
COc1ccc(C2=CC(c3ccccc3Cl)n3nc(-c4ccc(C)cc4)nc3N2)cc1 (centres undefined)	inconclusive [inhibitor, single point]	
CCc1ccc(-n2c(SCc3nc(-c4cc(OC)ccc4OC)no3)nnc2-c2ccccc2)cc1	active: 18.4 µM	
O=C(Nc1ccc(S(=O)(=O)Nc2ncccn2)cc1)c1ccc(Br)o1		inactive: -15.3%

— PubChem BioAssay AID686979 (National Center for Advancing Translational Sciences (NCATS), 2013)
